# Data taken from article PMC4336329 (PLoS ONE, 2015).
# About 14,000 (4.5%) of roughly 310,000 compounds showed an effect of 50% or more. Effects have a minus sign here. This is one part of the list.
# Molecular target: human ether-à-go-go-related gene (hERG) potassium channel (human, UniProt Q12809)
# Assay: primary screen, population patch clamp on CHO cells stably expressing hERG
# 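Also: peak tail current of the secondary pulse compared with the same well before compound.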
# human ether-à-go-go-related gene (hERG) potassium channel, sequence (Q12809 whole entry, looked up): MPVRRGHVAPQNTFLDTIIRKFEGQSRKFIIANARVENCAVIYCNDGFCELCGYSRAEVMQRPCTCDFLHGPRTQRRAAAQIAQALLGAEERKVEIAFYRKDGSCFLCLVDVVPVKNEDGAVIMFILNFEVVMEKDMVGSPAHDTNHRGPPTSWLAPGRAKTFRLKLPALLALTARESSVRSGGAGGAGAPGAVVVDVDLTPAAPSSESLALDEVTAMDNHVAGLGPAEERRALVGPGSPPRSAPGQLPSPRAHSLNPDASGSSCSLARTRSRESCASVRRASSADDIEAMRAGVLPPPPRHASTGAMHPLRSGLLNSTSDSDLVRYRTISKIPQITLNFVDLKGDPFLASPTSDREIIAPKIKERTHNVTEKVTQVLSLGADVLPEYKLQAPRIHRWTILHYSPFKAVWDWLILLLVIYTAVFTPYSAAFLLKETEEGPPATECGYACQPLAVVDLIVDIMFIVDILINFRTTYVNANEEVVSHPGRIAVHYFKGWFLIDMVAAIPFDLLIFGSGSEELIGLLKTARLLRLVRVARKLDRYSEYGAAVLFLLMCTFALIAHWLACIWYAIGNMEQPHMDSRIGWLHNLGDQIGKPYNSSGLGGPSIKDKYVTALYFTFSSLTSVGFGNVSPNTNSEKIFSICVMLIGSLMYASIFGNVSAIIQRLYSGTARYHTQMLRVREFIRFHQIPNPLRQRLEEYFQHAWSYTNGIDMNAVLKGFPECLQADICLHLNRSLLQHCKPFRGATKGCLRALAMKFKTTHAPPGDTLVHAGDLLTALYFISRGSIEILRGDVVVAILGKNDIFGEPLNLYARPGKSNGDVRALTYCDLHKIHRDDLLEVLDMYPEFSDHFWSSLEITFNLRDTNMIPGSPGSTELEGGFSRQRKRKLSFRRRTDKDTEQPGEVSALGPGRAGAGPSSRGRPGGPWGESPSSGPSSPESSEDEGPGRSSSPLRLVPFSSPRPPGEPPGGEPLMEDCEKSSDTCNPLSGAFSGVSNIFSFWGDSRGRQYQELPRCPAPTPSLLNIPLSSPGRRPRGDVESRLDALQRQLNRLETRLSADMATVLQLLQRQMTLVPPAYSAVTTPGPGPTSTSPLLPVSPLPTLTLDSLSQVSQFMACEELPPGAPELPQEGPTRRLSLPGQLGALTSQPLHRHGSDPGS
row,Compound,"hERG current change (%, negative = inhibition) at 10uM"
1,Nc1cc(-c2ccc(Br)cc2)nn1S(=O)(=O)c1cccc2nsnc12,5.71%
2,COc1ccc(C(C#N)Nc2ccccc2OC)cc1 (centres unmarked),-9.68%
3,COc1ccc(C2C(=O)N(CCc3ccccc3)CC(=O)N2C2CCCCC2)cc1 (centres unmarked),-28.9%
4,COC12C(COC(N)=O)C3=C(C(=O)C(C)=C(N)C3=O)N1CC1C2N1C (centres unmarked),1.45%
5,C=CCn1c(N)cc(=O)nc1SCC(=O)Nc1ccc(C)cc1,4.5%
6,CN1C(=O)N(C)C(=O)C2(Cc3cc(N)ccc3N3CCN(c4ccccc4F)CC32)C1=O (centres unmarked),-8.36%
7,CCN(c1cc(C)cc(C)c1)S(=O)(=O)c1nnc(NC(=O)C(C)(C)C)s1,11.6%
8,COc1ccc(S(=O)(=O)N2CCCCC2)cc1NC(=O)c1cnc(C)cn1,7.3%
9,CCCCCCCNC1=CC(=O)CC(c2ccccc2)C1 (centres unmarked),-81.3%
10,C/C(N)=C(/C#N)C(=O)CSc1nnc(-c2ccc(OC(F)F)cc2)o1,-5.31%
11,Cc1ccc(N2CCN(S(=O)(=O)N3CCOCC3)CC2)cc1C,13.2%
12,COCCNC(=S)N/N=C(\C)c1ccc(Cl)s1,-5.1%
13,COC(=O)c1cccc(NC(=O)c2ccc(S(=O)(=O)N3CCN(C)CC3)cc2)c1,-6.25%
14,CCOC(=O)C1=c2s/c(=C\c3ccncc3)c(=O)n2C(N)=C(C(=O)OC)C1c1ccncc1 (centres unmarked),5.01%
15,C[C@H]1CCC[C@]2(O[C@@H](CCO)C[C@H](O)[C@H]2O)O1,17.2%
16,COc1ccccc1N1C(=O)CSC1=S,10.5%
17,COc1ccc(C(=O)Nc2sc(C)c(C)c2CN2CC(C)OC(C)C2)cc1 (centres unmarked),1.89%
18,CCOc1ccc(/C=N/n2cc(-c3ccccc3)[nH]c2=S)cc1,29.9%
19,COc1ccc(CCN2CC(C(=O)NC3CCOCC3)CCC2=O)cc1 (centres unmarked),9.78%
20,Cc1ccccc1N=C(NO)c1nonc1N,17.8%
21,COc1ccc(NC(=O)CSc2nnc(CNc3ccc(F)cc3)o2)c(OC)c1,11.6%
22,Cn1c(=O)c2c(ncn2CCCc2ccccc2)n(C)c1=O,-3.21%
23,C[C@@H]1CCC[C@H](C)N1Cc1nc(Cc2ccccc2Cl)no1,6.26%

row,Compound,"hERG current change (%, negative = inhibition) at 10uM"
1,O=C(O)/C=C\C(=O)O.S=C(NC1CCCCC1)N1CCC(c2cnc[nH]2)CC1,-15.9%
2,CC(C)CNC(=S)N1CCC(c2nc(-c3ccc(F)cc3)no2)CC1,-59.1%
3,COc1ccc(-c2nnc(SCCC(=O)O)n2-c2ccccc2)cc1,7.43%
4,Oc1ccc(-c2c(C3=CCCCC3)sc3ccccc23)cc1,21.9%
5,CCC(OC(=O)C1=Cc2ccccc2OC1)C(=O)NC1CCCC1 (centres unmarked),-17.8%
6,CCN(CC(=O)NCc1ccc(F)cc1)CC(O)COCc1cccc(OC)c1 (centres unmarked),-60.6%
7,Cn1c(=O)oc2cc(S(=O)(=O)Nc3cccc(C(=O)O)c3)ccc21,25.9%
8,COC(=O)c1ccccc1NC(=O)Nc1cccnc1,-0.802%
9,C=CCNc1nc(C)c(CNc2c(C)cc(C)cc2C)nc1C#N,12.3%
10,CCn1c(SCC(=O)OC2CCCCC2)nc2ccccc2c1=O,-7.74%
11,CCCCN1C(=O)C(O)(CC(=O)c2c(C)n[nH]c2C)c2cc(Br)ccc21 (centres unmarked),-4.86%
12,CSc1ccc(Cl)c(C(=O)N2CCOc3ccccc32)c1,-28.4%
13,O=C(CN1CCOCC1)Nc1ccc([N+](=O)[O-])cc1Br,-43.7%
14,CC(=O)c1ccc(NC(=O)CSc2cn[nH]n2)cc1,13.6%
15,Nc1cccc2c1C(=O)N(c1ccccc1)C2=O,-4.67%
16,O=C(Cc1ccc(F)cc1)NCC1CCCO1 (centres unmarked),3.73%
17,Cc1cc(C)c(NC(=O)CNC(=O)CN2C(=O)NC3(CCCc4ccccc43)C2=O)c(C)c1 (centres unmarked),7.03%
18,CN1C2CCC1CC(OC(=O)c1cc(Cl)cc(Cl)c1)C2.Cl (centres unmarked),-57.4%
19,COc1ccc(C2CC(=O)c3cc(OC)c(OC)cc32)cc1OC (centres unmarked),20.7%
20,CCN(CC)S(=O)(=O)c1cccc(-c2nnc(SCC(=O)c3cc(C)n(C4CC4)c3C)o2)c1,16.5%
21,COc1ccc(/C=N/NC(=O)CNC(=O)C2COc3ccccc3O2)cc1OC (centres unmarked),-15.7%
22,CC(C)Oc1cccc(C(=O)Nc2ncn[nH]2)c1,-0.876%
23,CC1=C(C(=O)OC2CCCCC2)C(c2ccc(C)o2)C2=C(CCCC2=O)N1 (centres unmarked),-0.762%

row,Compound,"hERG current change (%, negative = inhibition) at 10uM"
1,CSc1nnnn1-c1cccc(O)c1,-6.74%
2,N#C/C(=C\c1ccc(O)c(O)c1)C(=O)Nc1ccccc1,6.48%
3,O=C1Nc2ccc(S(=O)(=O)N3CCCC3)c3cccc1c23,-7.57%
4,Cc1ccc(-n2cc3c(-c4cccc(Br)c4)nnc(C)c3n2)cc1,-33.7%
5,CCSc1ncnc2c1oc1ccccc12,19.4%
6,CCNc1nc(Oc2ccc(F)cc2)cc(C(F)(F)F)n1,6.58%
7,O=C(c1ccsc1)N1CCN(C(=O)c2cccs2)CC1,-24.1%
8,CCOC(=O)N1CCN(S(=O)(=O)c2ccc(Br)cc2)CC1,0.125%
9,Cc1ccc(NC(=O)CCN2C(=O)CSC2=O)c(C)c1,29.4%
10,CCn1cc(C(=O)N2CCc3ccccc3C2)c(=O)c2cc(S(=O)(=O)N3CCCCC3)ccc21,-40.7%
11,COc1ccc(NS(=O)(=O)c2cccc3cccnc23)cc1,12.5%
12,CCN(CC)C(=O)CSc1ncnc2c1cnn2Cc1ccccc1,-19.9%
13,CCCn1ncc([C@@H]2C[C@H]3CN(Cc4cccc(Cl)c4)C(=O)[C@]34CCCN24)c1C,-43.6%
14,CC(=O)c1c(O)n(C2CCCCCC2)c(=O)[nH]c1=O,17.5%
15,Cc1noc(C)c1CSCC(=O)N(C)CC(=O)Nc1ccc(F)c(F)c1F,1.07%
16,COc1cccc(CN2C(=NC(=O)CCC3CCCC3)SC3CS(=O)(=O)CC32)c1 (centres unmarked),7.4%
17,COc1ccc2cc3cc(C(=O)NCCN4CCN(Cc5ccccc5)CC4)oc3nc2c1,-71.8%
18,Oc1ccc(/C=N/NC(=S)NC2CC3CCC2C3)cc1 (centres unmarked),14.9%
19,CC(C)(C)[C@@H]1C=C(C(=O)N2CCN(Cc3ccccc3)CC2)O[C@H](OCCCCO)C1,2.51%
20,COc1ccccc1OCC(=O)N1CC2(C)CC1CC(C)(C)C2 (centres unmarked),-5.26%
21,CCc1nc2ccc(C(=O)NCCc3ccccc3OC)cc2nc1CC,-39.3%
22,CN1CCN(/C=C2\SC(=S)NC2=O)CC1,11.6%
23,O=C(N/N=C\c1ccccc1)c1cccc(C(=O)N/N=C\c2ccccc2)n1,4.57%

row,Compound,"hERG current change (%, negative = inhibition) at 10uM"
1,COc1ccc(CNc2ccc3c(c2)nc(C)n3C)cc1,-31.9%
2,CCOC(=O)c1ccc(NC(=O)CSc2ccc(-c3ccccn3)nn2)cc1,2.83%
3,CCOc1ccc(N(CC(=O)NCc2ccccc2)S(=O)(=O)c2c(C)noc2C)cc1,-5.02%
4,Cc1nccn1CCC(=O)O.Cl,0.257%
5,CC(O)[C@H]1CNC(=O)C(=O)N1CCCCC1CCCCC1 (some centres unmarked),15.5%
6,Cl.NC1=NC(c2cccc(Cl)c2)N(CCc2ccc(F)cc2)C(N)=N1 (centres unmarked),15.6%
7,CCOC(=O)N1CCN(CC(=O)Nc2nc3ccccc3s2)CC1,-35.5%
8,CCOC(=O)C1C(=O)OC(C)(C)C1C(C)C(=O)c1ccc(C)cc1 (centres unmarked),-0.432%
9,NS(=O)(=O)c1ccc(CCNC(=O)[C@@H]2CCCN2S(=O)(=O)c2ccccc2F)cc1,-2.88%
10,C=CCNC(=O)COC(=O)c1cc(S(=O)(=O)N2CCCCC2)ccc1Cl,-12.4%
11,CCCCCCCCCCCCN1[C@@H](CC(=O)OC)c2cc(F)ccc2S1(=O)=O,10.9%
12,CN(CCOc1ccccc1)CCOc1ccccc1,-26.3%
13,CC(C)Oc1ccc(NC(=O)Oc2ccccc2)cc1,-7.54%
14,Cc1ccc(Sc2ccc(/C=N/O)cc2[N+](=O)[O-])cc1,9.89%
15,COc1ccccc1NCC(=O)N/N=C(\C)c1ccc(Br)s1,-0.262%
16,Cc1cccnc1NC(=S)NC(=O)/C=C/c1ccccc1,-5.1%
17,Cn1c(CN2CCCCC2)nc2cc([N+](=O)[O-])ccc21,-0.791%
18,CCCS(=O)(=O)n1nc(-c2ccccc2)cc1N,0.509%
19,CCOc1ccc(C(=O)NC2CCN(CC(=O)NCc3ccccc3)CC2)cc1,-29.3%
20,CCC(C)NC(=S)NNC(=O)c1ccc(C(C)(C)C)cc1 (centres unmarked),19.2%
21,O=C(NC1CCCC1)C(c1ccncc1)N(Cc1ccccc1)C(=O)c1ccc(-c2ccccc2)[nH]1 (centres unmarked),-4.27%
22,COc1ccccc1-c1noc(CCC(=O)Nc2cccc(C)c2)n1,-4.2%
23,O=C(COC(=O)Cn1cnc2ccccc2c1=O)NCCC1=CCCCC1,-16.9%
